Laboratory results from PMC8986528.
No constants are given. Whether binding was seen depends on the method and setting. For some of these results: Binding seen in cells or lysates may run through a third protein. Some entries that bind do so weakly or less than the wild type. For some of these results: Where a sequence is shown, tags or fusion partners need not be part of it. Values belong to the molecule of their own block, whether it stands above or below them.

Chains of the proteins cited; added tags and fusions are not shown. Lines headed by an entry give the natural chain unless they say otherwise; changes in a name come on top.
UniProt Q8IZL8: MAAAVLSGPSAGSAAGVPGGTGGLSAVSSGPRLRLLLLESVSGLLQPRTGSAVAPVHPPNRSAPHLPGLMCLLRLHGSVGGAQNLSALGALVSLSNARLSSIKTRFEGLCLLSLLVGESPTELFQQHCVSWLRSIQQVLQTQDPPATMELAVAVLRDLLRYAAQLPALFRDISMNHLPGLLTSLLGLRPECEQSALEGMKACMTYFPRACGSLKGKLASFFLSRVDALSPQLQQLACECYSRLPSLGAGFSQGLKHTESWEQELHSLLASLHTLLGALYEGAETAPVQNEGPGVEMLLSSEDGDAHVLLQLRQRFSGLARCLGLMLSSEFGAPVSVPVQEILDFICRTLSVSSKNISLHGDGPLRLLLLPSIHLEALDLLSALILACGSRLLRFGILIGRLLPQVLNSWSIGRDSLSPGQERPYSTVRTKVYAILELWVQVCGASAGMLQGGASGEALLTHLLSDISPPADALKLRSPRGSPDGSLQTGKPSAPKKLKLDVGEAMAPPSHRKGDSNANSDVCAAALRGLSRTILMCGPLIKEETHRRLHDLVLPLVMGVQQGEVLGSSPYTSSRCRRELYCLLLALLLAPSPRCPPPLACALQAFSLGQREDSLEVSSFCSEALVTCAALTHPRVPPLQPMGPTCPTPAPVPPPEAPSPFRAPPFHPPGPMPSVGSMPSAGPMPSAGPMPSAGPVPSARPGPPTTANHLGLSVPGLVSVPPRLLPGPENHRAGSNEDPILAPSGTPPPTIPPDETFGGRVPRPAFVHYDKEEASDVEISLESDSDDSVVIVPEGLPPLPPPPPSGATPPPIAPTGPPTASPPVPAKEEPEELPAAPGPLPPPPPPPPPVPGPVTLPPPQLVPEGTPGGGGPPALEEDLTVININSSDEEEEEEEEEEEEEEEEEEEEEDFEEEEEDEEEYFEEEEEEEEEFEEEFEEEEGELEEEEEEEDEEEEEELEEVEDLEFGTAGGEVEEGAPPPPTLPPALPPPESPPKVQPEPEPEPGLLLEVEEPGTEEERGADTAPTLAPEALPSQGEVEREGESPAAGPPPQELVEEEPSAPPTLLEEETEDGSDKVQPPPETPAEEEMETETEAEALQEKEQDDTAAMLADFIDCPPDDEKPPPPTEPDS
UniProt Q9H4L4: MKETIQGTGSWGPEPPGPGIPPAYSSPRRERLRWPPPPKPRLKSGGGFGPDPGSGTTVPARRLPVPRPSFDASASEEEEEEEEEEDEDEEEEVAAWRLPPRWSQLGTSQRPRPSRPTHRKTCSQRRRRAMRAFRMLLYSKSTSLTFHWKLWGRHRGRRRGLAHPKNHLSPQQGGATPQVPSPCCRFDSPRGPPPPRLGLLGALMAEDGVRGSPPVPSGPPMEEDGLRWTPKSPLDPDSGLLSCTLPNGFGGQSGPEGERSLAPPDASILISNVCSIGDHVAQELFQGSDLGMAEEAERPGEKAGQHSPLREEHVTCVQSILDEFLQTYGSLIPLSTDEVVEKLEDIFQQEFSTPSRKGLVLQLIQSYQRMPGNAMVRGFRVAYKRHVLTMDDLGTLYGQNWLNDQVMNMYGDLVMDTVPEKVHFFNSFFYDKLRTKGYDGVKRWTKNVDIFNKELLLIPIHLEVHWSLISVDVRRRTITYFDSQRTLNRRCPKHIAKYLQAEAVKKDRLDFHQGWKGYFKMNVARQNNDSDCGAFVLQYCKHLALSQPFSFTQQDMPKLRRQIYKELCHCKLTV
UniProt Q99496: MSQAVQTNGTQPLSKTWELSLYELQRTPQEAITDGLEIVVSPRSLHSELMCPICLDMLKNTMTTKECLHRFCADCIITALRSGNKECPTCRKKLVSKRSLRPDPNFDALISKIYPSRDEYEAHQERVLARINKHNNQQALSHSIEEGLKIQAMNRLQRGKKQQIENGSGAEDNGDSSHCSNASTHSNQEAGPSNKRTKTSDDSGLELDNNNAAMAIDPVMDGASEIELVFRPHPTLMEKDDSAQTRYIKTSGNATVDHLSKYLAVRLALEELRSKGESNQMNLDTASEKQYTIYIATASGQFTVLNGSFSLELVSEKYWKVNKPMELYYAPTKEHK
UniProt O95931: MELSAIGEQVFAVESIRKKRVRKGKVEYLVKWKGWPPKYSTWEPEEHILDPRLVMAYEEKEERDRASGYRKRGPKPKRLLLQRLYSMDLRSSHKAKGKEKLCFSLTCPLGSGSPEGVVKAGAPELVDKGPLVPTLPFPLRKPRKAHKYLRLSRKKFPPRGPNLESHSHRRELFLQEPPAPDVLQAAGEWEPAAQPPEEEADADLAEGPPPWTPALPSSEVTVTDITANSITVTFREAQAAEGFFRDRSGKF
UniProt O75530: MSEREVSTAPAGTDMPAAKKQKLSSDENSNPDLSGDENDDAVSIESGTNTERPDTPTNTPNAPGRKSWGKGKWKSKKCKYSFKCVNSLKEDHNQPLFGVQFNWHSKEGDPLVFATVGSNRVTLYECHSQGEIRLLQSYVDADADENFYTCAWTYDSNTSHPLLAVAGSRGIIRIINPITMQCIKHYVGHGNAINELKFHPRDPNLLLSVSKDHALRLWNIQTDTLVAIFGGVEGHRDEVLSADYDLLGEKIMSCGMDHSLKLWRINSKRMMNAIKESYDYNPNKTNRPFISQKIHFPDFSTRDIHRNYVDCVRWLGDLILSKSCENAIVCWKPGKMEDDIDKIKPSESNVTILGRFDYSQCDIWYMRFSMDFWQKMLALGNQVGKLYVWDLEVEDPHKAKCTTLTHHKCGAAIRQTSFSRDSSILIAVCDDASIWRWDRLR

Legend:
[1] = target: T1, 3×Flag–NOL9 (human (endogenous in HEK 293FT)) (UniProt Q5SY16); experiment: co-sedimentation; Flag–NOL9-associated and PHC2–Flag-associated proteins purified from the soluble chromatin fraction of cells with wild-type RING1B, eluted with 3×Flag peptide, 10–30% sucrose gradient, 16 h at 4 °C, fractions immunoblotted
T1 sequence: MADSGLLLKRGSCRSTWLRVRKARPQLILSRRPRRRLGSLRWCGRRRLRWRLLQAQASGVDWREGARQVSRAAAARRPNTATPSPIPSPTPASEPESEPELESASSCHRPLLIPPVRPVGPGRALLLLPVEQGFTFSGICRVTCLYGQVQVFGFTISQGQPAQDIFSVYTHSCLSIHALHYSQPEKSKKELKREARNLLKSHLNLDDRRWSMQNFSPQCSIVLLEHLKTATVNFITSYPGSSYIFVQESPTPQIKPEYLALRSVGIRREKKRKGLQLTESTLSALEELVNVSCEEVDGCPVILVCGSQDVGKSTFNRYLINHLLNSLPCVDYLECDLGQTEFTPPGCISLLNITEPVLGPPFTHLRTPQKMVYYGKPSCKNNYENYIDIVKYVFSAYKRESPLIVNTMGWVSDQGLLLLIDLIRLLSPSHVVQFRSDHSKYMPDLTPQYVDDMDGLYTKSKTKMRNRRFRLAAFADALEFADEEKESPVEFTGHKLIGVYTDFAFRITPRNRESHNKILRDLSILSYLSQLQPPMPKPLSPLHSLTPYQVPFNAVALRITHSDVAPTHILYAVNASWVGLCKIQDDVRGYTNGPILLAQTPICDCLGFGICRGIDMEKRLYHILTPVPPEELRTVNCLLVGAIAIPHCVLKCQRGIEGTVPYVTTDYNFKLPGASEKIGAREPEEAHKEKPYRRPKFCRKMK

[2] = target: T2, 3×Flag–WDR18 (human (endogenous in HEK 293FT)) (UniProt Q9BV38); experiment: co-IP; immunoprecipitation from the DNase I-digested chromatin fraction of HEK 293FT cells (IP buffer 250 mM NaCl, 1% Triton X-100), Dynabeads Protein A/G, immunoblot; Fig. 1f, g with or without 500 U/ml benzonase
T2 sequence: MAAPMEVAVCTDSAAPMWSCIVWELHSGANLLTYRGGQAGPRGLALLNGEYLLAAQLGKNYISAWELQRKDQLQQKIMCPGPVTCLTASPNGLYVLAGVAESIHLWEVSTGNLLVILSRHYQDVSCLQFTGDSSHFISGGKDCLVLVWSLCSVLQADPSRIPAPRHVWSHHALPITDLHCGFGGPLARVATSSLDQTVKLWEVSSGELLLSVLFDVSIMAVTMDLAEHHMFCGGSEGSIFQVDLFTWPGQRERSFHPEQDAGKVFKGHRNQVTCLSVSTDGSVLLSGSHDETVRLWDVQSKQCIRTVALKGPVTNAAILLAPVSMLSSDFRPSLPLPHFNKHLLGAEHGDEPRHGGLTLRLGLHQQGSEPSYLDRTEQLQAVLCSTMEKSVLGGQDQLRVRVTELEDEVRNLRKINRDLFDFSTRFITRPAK

[3] = target: T1, 3×Flag–NOL9 (human (endogenous in HEK 293FT)); experiment: as above
[4] = target: T3, TEX10 (human (endogenous in HEK 293FT)) (UniProt Q9NXF1); experiment: as above
T3 sequence: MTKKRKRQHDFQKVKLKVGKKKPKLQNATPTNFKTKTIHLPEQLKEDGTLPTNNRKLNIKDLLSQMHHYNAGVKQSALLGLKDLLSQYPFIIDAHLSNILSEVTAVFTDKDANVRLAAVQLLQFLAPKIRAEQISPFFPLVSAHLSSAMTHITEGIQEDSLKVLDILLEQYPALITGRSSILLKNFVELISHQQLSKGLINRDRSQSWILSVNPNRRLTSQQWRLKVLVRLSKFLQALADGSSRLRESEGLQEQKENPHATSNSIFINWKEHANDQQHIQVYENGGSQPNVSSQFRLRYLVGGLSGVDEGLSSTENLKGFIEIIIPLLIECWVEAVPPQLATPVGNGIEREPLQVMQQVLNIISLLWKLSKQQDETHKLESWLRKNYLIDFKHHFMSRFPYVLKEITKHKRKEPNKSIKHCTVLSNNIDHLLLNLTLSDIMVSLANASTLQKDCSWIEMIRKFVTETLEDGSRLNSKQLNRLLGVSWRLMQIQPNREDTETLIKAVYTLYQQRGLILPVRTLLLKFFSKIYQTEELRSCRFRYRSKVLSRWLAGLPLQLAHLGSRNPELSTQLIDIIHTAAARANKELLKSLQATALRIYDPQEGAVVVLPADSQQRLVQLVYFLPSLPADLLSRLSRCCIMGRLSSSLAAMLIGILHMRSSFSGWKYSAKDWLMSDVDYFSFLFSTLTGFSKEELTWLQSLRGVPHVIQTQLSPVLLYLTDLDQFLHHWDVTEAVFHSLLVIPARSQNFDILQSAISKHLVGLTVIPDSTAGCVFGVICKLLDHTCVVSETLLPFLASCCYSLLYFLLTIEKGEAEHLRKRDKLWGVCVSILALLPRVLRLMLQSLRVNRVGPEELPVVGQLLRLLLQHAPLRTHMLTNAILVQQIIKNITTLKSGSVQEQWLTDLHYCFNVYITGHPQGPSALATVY

[5] = target: PELP1 (human (endogenous in HEK 293FT)) (UniProt Q8IZL8); experiment: as above
[6] = target: SENP3 (human (endogenous in HEK 293FT)) (UniProt Q9H4L4); experiment: as above
[7] = target: T4, PCGF3 (yeast two-hybrid fusion) (human) (UniProt Q3KNV8); experiment: two-hybrid; yeast two-hybrid, bait pGBKT7 and prey pGADT7, growth on quadruple dropout medium (SC -Trp, -Leu, -His, -Ade), 30 °C
T4 sequence: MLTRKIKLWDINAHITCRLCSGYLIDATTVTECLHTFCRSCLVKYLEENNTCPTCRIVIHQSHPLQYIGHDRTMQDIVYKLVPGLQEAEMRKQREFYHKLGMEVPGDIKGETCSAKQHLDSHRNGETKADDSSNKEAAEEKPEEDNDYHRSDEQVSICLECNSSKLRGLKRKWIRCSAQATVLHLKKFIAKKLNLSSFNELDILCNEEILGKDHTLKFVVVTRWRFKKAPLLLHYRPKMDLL

[8] = target: T1, 3×Flag–NOL9 (human (endogenous in HEK 293FT)); experiment: co-sedimentation; as a6, but proteins purified from RING1B-2A mutant cells
[9] = target: RING1B (yeast two-hybrid fusion) (human) (UniProt Q99496); experiment: two-hybrid; yeast two-hybrid, bait pGBKT7 and prey pGADT7, growth on quadruple dropout medium (SC -Trp, -Leu, -His, -Ade), 30 °C
[10] = target: CBX7 (yeast two-hybrid fusion) (human) (UniProt O95931); experiment: as above
[11] = target: EED (yeast two-hybrid fusion) (human) (UniProt O75530); experiment: as above
[12] = target: T5, CBX8 (yeast two-hybrid fusion) (human) (UniProt Q9HC52); experiment: as above
T5 sequence: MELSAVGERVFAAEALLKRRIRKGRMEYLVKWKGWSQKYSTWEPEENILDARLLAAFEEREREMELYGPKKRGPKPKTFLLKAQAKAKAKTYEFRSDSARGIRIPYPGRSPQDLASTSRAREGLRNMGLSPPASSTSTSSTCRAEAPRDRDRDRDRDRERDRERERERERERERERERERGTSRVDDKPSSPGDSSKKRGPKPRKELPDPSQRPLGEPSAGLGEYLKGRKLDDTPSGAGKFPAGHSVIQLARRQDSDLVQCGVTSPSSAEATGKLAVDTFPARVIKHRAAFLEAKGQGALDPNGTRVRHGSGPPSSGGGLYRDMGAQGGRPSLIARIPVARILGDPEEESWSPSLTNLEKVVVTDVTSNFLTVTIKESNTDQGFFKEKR

[13] = target: full-length GST–RING1B (human) (UniProt Q99496); experiment: pull-down; GST or GST-tagged RING1B proteins (0.1 μM) on Glutathione Sepharose 4B with untagged TEX10 (0.1 μM) in PBS pH 7.4 with 0.5% Triton 100, overnight at 4 °C; TEX10 detected by immunoblot; both purified

binding [1]: binds
binding [2]: binds
binding [3]: binds
binding [4]: binds
binding [5]: binds
binding [6]: binds
Molecule: RING1B (from UniProt Q99496 1-336)

binding [7]: binds
Molecule: PELP1 (yeast two-hybrid fusion) (from UniProt Q8IZL8 1-1130)

binding [8]: no binding
Molecule: RING1B(Q137A/Q138A) (from UniProt Q99496 1-336)

binding [9]: binds
binding [10]: binds
binding [11]: binds
binding [12]: binds
B1: TEX10 (yeast two-hybrid fusion) (protein, UniProt Q9NXF1 1-929)
chain: MTKKRKRQHDFQKVKLKVGKKKPKLQNATPTNFKTKTIHLPEQLKEDGTLPTNNRKLNIKDLLSQMHHYNAGVKQSALLGLKDLLSQYPFIIDAHLSNILSEVTAVFTDKDANVRLAAVQLLQFLAPKIRAEQISPFFPLVSAHLSSAMTHITEGIQEDSLKVLDILLEQYPALITGRSSILLKNFVELISHQQLSKGLINRDRSQSWILSVNPNRRLTSQQWRLKVLVRLSKFLQALADGSSRLRESEGLQEQKENPHATSNSIFINWKEHANDQQHIQVYENGGSQPNVSSQFRLRYLVGGLSGVDEGLSSTENLKGFIEIIIPLLIECWVEAVPPQLATPVGNGIEREPLQVMQQVLNIISLLWKLSKQQDETHKLESWLRKNYLIDFKHHFMSRFPYVLKEITKHKRKEPNKSIKHCTVLSNNIDHLLLNLTLSDIMVSLANASTLQKDCSWIEMIRKFVTETLEDGSRLNSKQLNRLLGVSWRLMQIQPNREDTETLIKAVYTLYQQRGLILPVRTLLLKFFSKIYQTEELRSCRFRYRSKVLSRWLAGLPLQLAHLGSRNPELSTQLIDIIHTAAARANKELLKSLQATALRIYDPQEGAVVVLPADSQQRLVQLVYFLPSLPADLLSRLSRCCIMGRLSSSLAAMLIGILHMRSSFSGWKYSAKDWLMSDVDYFSFLFSTLTGFSKEELTWLQSLRGVPHVIQTQLSPVLLYLTDLDQFLHHWDVTEAVFHSLLVIPARSQNFDILQSAISKHLVGLTVIPDSTAGCVFGVICKLLDHTCVVSETLLPFLASCCYSLLYFLLTIEKGEAEHLRKRDKLWGVCVSILALLPRVLRLMLQSLRVNRVGPEELPVVGQLLRLLLQHAPLRTHMLTNAILVQQIIKNITTLKSGSVQEQWLTDLHYCFNVYITGHPQGPSALATVY

binding [13]: binds
B2: TEX10 (bacterially expressed and purified) (protein, UniProt Q9NXF1 1-929)
chain: MTKKRKRQHDFQKVKLKVGKKKPKLQNATPTNFKTKTIHLPEQLKEDGTLPTNNRKLNIKDLLSQMHHYNAGVKQSALLGLKDLLSQYPFIIDAHLSNILSEVTAVFTDKDANVRLAAVQLLQFLAPKIRAEQISPFFPLVSAHLSSAMTHITEGIQEDSLKVLDILLEQYPALITGRSSILLKNFVELISHQQLSKGLINRDRSQSWILSVNPNRRLTSQQWRLKVLVRLSKFLQALADGSSRLRESEGLQEQKENPHATSNSIFINWKEHANDQQHIQVYENGGSQPNVSSQFRLRYLVGGLSGVDEGLSSTENLKGFIEIIIPLLIECWVEAVPPQLATPVGNGIEREPLQVMQQVLNIISLLWKLSKQQDETHKLESWLRKNYLIDFKHHFMSRFPYVLKEITKHKRKEPNKSIKHCTVLSNNIDHLLLNLTLSDIMVSLANASTLQKDCSWIEMIRKFVTETLEDGSRLNSKQLNRLLGVSWRLMQIQPNREDTETLIKAVYTLYQQRGLILPVRTLLLKFFSKIYQTEELRSCRFRYRSKVLSRWLAGLPLQLAHLGSRNPELSTQLIDIIHTAAARANKELLKSLQATALRIYDPQEGAVVVLPADSQQRLVQLVYFLPSLPADLLSRLSRCCIMGRLSSSLAAMLIGILHMRSSFSGWKYSAKDWLMSDVDYFSFLFSTLTGFSKEELTWLQSLRGVPHVIQTQLSPVLLYLTDLDQFLHHWDVTEAVFHSLLVIPARSQNFDILQSAISKHLVGLTVIPDSTAGCVFGVICKLLDHTCVVSETLLPFLASCCYSLLYFLLTIEKGEAEHLRKRDKLWGVCVSILALLPRVLRLMLQSLRVNRVGPEELPVVGQLLRLLLQHAPLRTHMLTNAILVQQIIKNITTLKSGSVQEQWLTDLHYCFNVYITGHPQGPSALATVY
